# Results from the supplement of paper PMC8728848.
# This is one part of the list.
# B1: SpnanA (Streptococcus pneumoniae), P62575 (protein)
# chain: MVIEKEDVETNASNGQRVDLSSELDKLKKLENATVHMEFKPDAKAPAFYNLFSVSSATKKDEYFTMAVYNNTATLEGRGSDGKQFYNNYNDAPLKVKPGQWNSVTFTVEKPTAELPKGRVRLYVNGVLSRTSLRSGNFIKDMPDVTHVQIGATKRANNTVWGSNLQIRNLTVYNRALTPEEVQKRS
# What was measured:
# Assay in all cases: glycan array binding signal (z-score within array); higher = stronger binding
# Conditions in all cases: glycan notation: IUPAC condensed, linker removed
# Fuc(a1-2)Gal = biological target: Fuc(a1-2)Gal
# Outline: (§1)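 Negative Z-scores can be read as non-binding. The Z-score is calculated within each array and then averaged across arrays of one protein sequence at different concentrations or buffers and across linkers. Arrays, 3228 in all, were curated from the Consortium for Functional Glycomics database and kept only where the protein sequence was available.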
# Fuc(a1-2)Gal(b1-3)GalNAc = biological target: Fuc(a1-2)Gal(b1-3)GalNAc
# Outline: as §1
# [1] = biological target: Fuc(a1-2)Gal(b1-3)GalNAc(a1-3)[Fuc(a1-2)]Gal(b1-4)Glc
# Outline: as §1
# [2] = biological target: Fuc(a1-2)Gal(b1-3)GalNAc(a1-3)[Fuc(a1-2)]Gal(b1-4)GlcNAc
# Outline: as §1
# [3] = biological target: Fuc(a1-2)Gal(b1-3)GalNAc(b1-3)Gal
# Outline: as §1
# [4] = biological target: Fuc(a1-2)Gal(b1-3)GalNAc(b1-3)Gal(a1-4)Gal(b1-4)Glc
# Outline: as §1
# [5] = biological target: Fuc(a1-2)Gal(b1-3)GalNAc(b1-4)[Neu5Ac(a2-3)]Gal(b1-4)Glc
# Outline: as §1
# Fuc(a1-2)Gal(b1-3)GlcNAc = biological target: Fuc(a1-2)Gal(b1-3)GlcNAc
# Outline: as §1
# [6] = biological target: Fuc(a1-2)Gal(b1-3)GlcNAc(b1-2)Man(a1-3)[Fuc(a1-2)Gal(b1-3)GlcNAc(b1-2)Man(a1-6)]Man(b1-4)GlcNAc(b1-4)GlcNAc
# Outline: as §1
# [7] = biological target: Fuc(a1-2)Gal(b1-3)GlcNAc(b1-2)Man(a1-3)[Fuc(a1-2)Gal(b1-3)GlcNAc(b1-2)Man(a1-6)]Man(b1-4)GlcNAc(b1-4)[Fuc(a1-6)]GlcNAc
# Outline: as §1
# [8] = biological target: Fuc(a1-2)Gal(b1-3)GlcNAc(b1-3)Gal(b1-4)Glc
# Outline: as §1
# [9] = biological target: Fuc(a1-2)Gal(b1-3)GlcNAc(b1-3)GalNAc
# Outline: as §1
# [10] = biological target: Fuc(a1-2)Gal(b1-3)GlcNAc(b1-3)[Fuc(a1-2)Gal(b1-3)GlcNAc(b1-6)]GalNAc
# Outline: as §1
# [11] = biological target: Fuc(a1-2)Gal(b1-3)GlcNAc(b1-3)[Fuc(a1-3)[Gal(b1-4)]GlcNAc(b1-6)]Gal(b1-4)Glc
# Outline: as §1
# [12] = biological target: Fuc(a1-2)Gal(b1-3)GlcNAc(b1-3)[Gal(b1-4)GlcNAc(b1-6)]Gal(b1-4)Glc
# Outline: as §1
# [13] = biological target: Fuc(a1-2)Gal(b1-3)GlcNAc(b1-3)[Neu5Ac(a2-6)Gal(b1-4)GlcNAc(b1-6)]Gal(b1-4)Glc
# Outline: as §1
# [14] = biological target: Fuc(a1-2)Gal(b1-3)GlcNAc6S
# Outline: as §1
# [15] = biological target: Fuc(a1-2)Gal(b1-3)[Fuc(a1-4)]GlcNAc
# Outline: as §1
# [16] = biological target: Fuc(a1-2)Gal(b1-3)[Fuc(a1-4)]GlcNAc(b1-2)Man(a1-3)[Fuc(a1-2)Gal(b1-3)[Fuc(a1-4)]GlcNAc(b1-2)Man(a1-6)]Man(b1-4)GlcNAc(b1-4)GlcNAc
# Outline: as §1
# [17] = biological target: Fuc(a1-2)Gal(b1-3)[Fuc(a1-4)]GlcNAc(b1-2)Man(a1-6)[Fuc(a1-2)Gal(b1-3)[Fuc(a1-4)]GlcNAc(b1-2)Man(a1-3)]Man(b1-4)GlcNAc(b1-4)[Fuc(a1-6)]GlcNAc
# Outline: as §1
# [18] = biological target: Fuc(a1-2)Gal(b1-3)[Fuc(a1-4)]GlcNAc(b1-3)[Fuc(a1-3)[Gal(b1-4)]GlcNAc(b1-6)]Gal(b1-4)Glc
# Outline: as §1
# [19] = biological target: Fuc(a1-2)Gal(b1-3)[Fuc(a1-4)]GlcNAc(b1-3)[Gal(b1-4)GlcNAc(b1-6)]Gal(b1-4)Glc
# Outline: as §1
# Fuc(a1-2)Gal(b1-4)Glc = biological target: Fuc(a1-2)Gal(b1-4)Glc
# Outline: as §1
# Fuc(a1-2)Gal(b1-4)Glc6S = biological target: Fuc(a1-2)Gal(b1-4)Glc6S
# Outline: as §1
# Fuc(a1-2)Gal(b1-4)GlcNAc = biological target: Fuc(a1-2)Gal(b1-4)GlcNAc
# Outline: as §1
# [20] = biological target: Fuc(a1-2)Gal(b1-4)GlcNAc(b1-2)Man
# Outline: as §1
# [21] = biological target: Fuc(a1-2)Gal(b1-4)GlcNAc(b1-2)Man(a1-3)[Fuc(a1-2)Gal(b1-4)GlcNAc(b1-2)Man(a1-6)]Man(b1-4)GlcNAc(b1-4)GlcNAc
# Outline: as §1
# [22] = biological target: Fuc(a1-2)Gal(b1-4)GlcNAc(b1-2)Man(a1-3)[Fuc(a1-2)Gal(b1-4)GlcNAc(b1-2)Man(a1-6)]Man(b1-4)GlcNAc(b1-4)[Fuc(a1-6)]GlcNAc
# Outline: as §1
# [23] = biological target: Fuc(a1-2)Gal(b1-4)GlcNAc(b1-2)[Fuc(a1-2)Gal(b1-4)GlcNAc(b1-4)]Man(a1-3)[Fuc(a1-2)Gal(b1-4)GlcNAc(b1-2)Man(a1-6)]Man(b1-4)GlcNAc(b1-4)GlcNAc
# Outline: as §1
# [24] = biological target: Fuc(a1-2)Gal(b1-4)GlcNAc(b1-3)Gal(b1-4)GlcNAc
# Outline: as §1
# [25] = biological target: Fuc(a1-2)Gal(b1-4)GlcNAc(b1-3)Gal(b1-4)GlcNAc(b1-3)Gal(b1-4)GlcNAc
# Outline: as §1
# [26] = biological target: Fuc(a1-2)Gal(b1-4)GlcNAc(b1-3)GalNAc
# Outline: as §1
# [27] = biological target: Fuc(a1-2)Gal(b1-4)GlcNAc(b1-3)[Fuc(a1-2)Gal(b1-4)GlcNAc(b1-6)]GalNAc
# Outline: as §1
# [28] = biological target: Fuc(a1-2)Gal(b1-4)GlcNAc(b1-6)GalNAc
# Outline: as §1
# [29] = biological target: Fuc(a1-2)Gal(b1-4)GlcNAc6S
# Outline: as §1
# [30] = biological target: Fuc(a1-2)Gal(b1-4)[Fuc(a1-3)]GlcNAc
# Outline: as §1
# [31] = biological target: Fuc(a1-2)Gal(b1-4)[Fuc(a1-3)]GlcNAc(b1-2)Man(a1-3)[Fuc(a1-2)Gal(b1-4)[Fuc(a1-3)]GlcNAc(b1-2)Man(a1-6)]Man(b1-4)GlcNAc(b1-4)GlcNAc
# Outline: as §1
# [32] = biological target: Fuc(a1-2)Gal(b1-4)[Fuc(a1-3)]GlcNAc(b1-2)Man(a1-6)[Fuc(a1-2)Gal(b1-4)[Fuc(a1-3)]GlcNAc(b1-2)Man(a1-3)]Man(b1-4)GlcNAc(b1-4)[Fuc(a1-6)]GlcNAc
# Outline: as §1
# [33] = biological target: Fuc(a1-2)Gal(b1-4)[Fuc(a1-3)]GlcNAc(b1-2)[Fuc(a1-2)Gal(b1-4)[Fuc(a1-3)]GlcNAc(b1-4)]Man(a1-3)[Fuc(a1-2)Gal(b1-4)[Fuc(a1-3)]GlcNAc(b1-2)Man(a1-6)]Man(b1-4)GlcNAc(b1-4)GlcNAc
# Outline: as §1
# [34] = biological target: Fuc(a1-2)Gal(b1-4)[Fuc(a1-3)]GlcNAc(b1-3)Gal(b1-4)[Fuc(a1-3)]GlcNAc
# Outline: as §1
# [35] = biological target: Fuc(a1-2)Gal(b1-4)[Fuc(a1-3)]GlcNAc(b1-3)Gal(b1-4)[Fuc(a1-3)]GlcNAc(b1-3)Gal(b1-4)[Fuc(a1-3)]GlcNAc
# Outline: as §1
# [36] = biological target: Fuc(a1-2)Gal(b1-4)[Fuc(a1-3)]GlcNAc(b1-3)GalNAc
# Outline: as §1
# [37] = biological target: Fuc(a1-2)Gal(b1-4)[Fuc(a1-3)]GlcNAc(b1-3)[Neu5Ac(a2-6)Gal(b1-4)GlcNAc(b1-6)]Gal(b1-4)Glc
# Outline: as §1
# [38] = biological target: Fuc(a1-2)Gal6S(b1-3)GlcNAc
# Outline: as §1
# [39] = biological target: Fuc(a1-2)Gal6S(b1-3)GlcNAc6S
# Outline: as §1
binder,measurement,setting,value
B1,glycan array binding signal (z-score),Fuc(a1-2)Gal,-0.253
same,glycan array binding signal (z-score),Fuc(a1-2)Gal(b1-3)GalNAc,-0.244
same,glycan array binding signal (z-score),[1],-0.212
same,glycan array binding signal (z-score),[2],-0.35
same,glycan array binding signal (z-score),[3],-0.052
same,glycan array binding signal (z-score),[4],-0.29
same,glycan array binding signal (z-score),[5],-0.252
same,glycan array binding signal (z-score),Fuc(a1-2)Gal(b1-3)GlcNAc,-0.174
same,glycan array binding signal (z-score),[6],-0.237
same,glycan array binding signal (z-score),[7],-0.253
same,glycan array binding signal (z-score),[8],-0.269
same,glycan array binding signal (z-score),[9],-0.251
same,glycan array binding signal (z-score),[10],-0.323
same,glycan array binding signal (z-score),[11],-0.229
same,glycan array binding signal (z-score),[12],-0.3
same,glycan array binding signal (z-score),[13],-0.366
same,glycan array binding signal (z-score),[14],-0.218
same,glycan array binding signal (z-score),[15],0.313
same,glycan array binding signal (z-score),[16],0.096
same,glycan array binding signal (z-score),[17],-0.258
same,glycan array binding signal (z-score),[18],-0.229
same,glycan array binding signal (z-score),[19],-0.317
same,glycan array binding signal (z-score),Fuc(a1-2)Gal(b1-4)Glc,-0.329
same,glycan array binding signal (z-score),Fuc(a1-2)Gal(b1-4)Glc6S,-0.201
same,glycan array binding signal (z-score),Fuc(a1-2)Gal(b1-4)GlcNAc,-0.29
same,glycan array binding signal (z-score),[20],-0.296
same,glycan array binding signal (z-score),[21],-0.241
same,glycan array binding signal (z-score),[22],-0.323
same,glycan array binding signal (z-score),[23],-0.131
same,glycan array binding signal (z-score),[24],-0.209
same,glycan array binding signal (z-score),[25],-0.194
same,glycan array binding signal (z-score),[26],-0.174
same,glycan array binding signal (z-score),[27],-0.282
same,glycan array binding signal (z-score),[28],-0.271
same,glycan array binding signal (z-score),[29],-0.226
same,glycan array binding signal (z-score),[30],-0.185
same,glycan array binding signal (z-score),[31],-0.12
same,glycan array binding signal (z-score),[32],-0.292
same,glycan array binding signal (z-score),[33],-0.066
same,glycan array binding signal (z-score),[34],-0.265
same,glycan array binding signal (z-score),[35],-0.144
same,glycan array binding signal (z-score),[36],0.815
same,glycan array binding signal (z-score),[37],-0.301
same,glycan array binding signal (z-score),[38],-0.314
same,glycan array binding signal (z-score),[39],-0.012
